# Test results taken from the supplement of paper PMC4604168 (melanoma cell lines).
# The other results are listed elsewhere or left out. Many values rest on one well or one pass, so single values are uncertain.
# How the values were obtained:
# Experiment in all cases: cell count relative to DMSO control; melanoma cells; higher = more viable cells
# Settings in all cases: library dose: low library concentration; 72 h
# [1] = tested on: MZ2-MEL
# [2] = tested on: MeWo
# [3] = tested on: RPMI7951
# [4] = tested on: RVH-421
# [5] = tested on: SkMel28
# [6] = tested on: SkMel2
# [7] = tested on: SkMel30
# [8] = tested on: SkMel5
# [9] = tested on: UACC257
# [10] = tested on: UACC62
# 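Also: cell number obtained by counting DAPI-stained nuclei in high-throughput microscope images with image analysis software, screen run in 1,536-well plates.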
structure (smiles),measurement,setting,value
"CS(=O)(=O)c1ccc(C(=O)Nc2ccc(Cl)c(-c3ccccn3)c2)c(Cl)c1 [vismodegib] + COc1ccc(-c2ccc3c(N4CCOCC4)nc(N4C[C@@H](C)O[C@@H](C)C4)nc3n2)cc1CO [KU0063794] (first compound 1 µM, partner dose 0.02 µM)",cell count,[1],96%
same,cell count,[2],105%
same,cell count,[3],107%
same,cell count,[4],88%
same,cell count,[5],92.2%
same,cell count,[6],86.3%
same,cell count,[7],109%
same,cell count,[8],98%
same,cell count,[9],89.6%
same,cell count,[10],105%
"CN(c1ncccc1CNc1nc(Nc2ccc3c(c2)CC(=O)N3)ncc1C(F)(F)F)S(C)(=O)=O + Cn1cc(/C=C2\C(=O)Nc3cccnc32)c2ccccc21 [GW441756] (first compound 0.08 µM, partner dose 0.4 µM)",cell count,[1],87.9%
same,cell count,[2],88.7%
same,cell count,[3],56.6%
same,cell count,[4],90.5%
same,cell count,[5],80.8%
same,cell count,[6],78.7%
same,cell count,[7],102%
same,cell count,[8],74.8%
same,cell count,[9],71%
same,cell count,[10],74.8%
"NC1(c2ccc(-c3nc4ccn5c(=O)[nH]nc5c4cc3-c3ccccc3)cc2)CCC1 + Cc1ccc(NC(=O)c2cccc(N(C)C)c2)cc1NC(=O)c1ccc(O)cc1 [ZM336372] (first compound 0.4 µM, partner dose 2 µM)",cell count,[1],71.2%
same,cell count,[2],101%
same,cell count,[3],82.9%
same,cell count,[4],96.7%
same,cell count,[5],52.4%
same,cell count,[6],98.5%
same,cell count,[7],78%
same,cell count,[8],94.5%
same,cell count,[9],95.6%
same,cell count,[10],84.8%
"CCCS(=O)(=O)Nc1ccc(F)c(C(=O)c2c[nH]c3ncc(Cl)cc23)c1F + NCC(=O)Nc1ccc(-n2nc(C(F)(F)F)cc2-c2ccc3c(ccc4ccccc43)c2)cc1 [OSU03012] (first compound 0.08 µM, partner dose 1 µM)",cell count,[1],67.2%
same,cell count,[2],56%
same,cell count,[3],94.1%
same,cell count,[4],95.2%
same,cell count,[5],77.3%
same,cell count,[6],54.5%
same,cell count,[7],45.1%
same,cell count,[8],112%
same,cell count,[9],86.1%
same,cell count,[10],58.6%
"CS(=O)(=O)c1ccc(C(=O)Nc2ccc(Cl)c(-c3ccccn3)c2)c(Cl)c1 [vismodegib] + O=C(Nc1ccccc1)c1cc([N+](=O)[O-])ccc1Cl [GW9662] (first compound 1 µM, partner dose 2 µM)",cell count,[1],99.2%
same,cell count,[2],94.6%
same,cell count,[3],102%
same,cell count,[4],120%
same,cell count,[5],91.4%
same,cell count,[6],99.2%
same,cell count,[7],108%
same,cell count,[8],99%
same,cell count,[9],105%
same,cell count,[10],98.9%
"CCCS(=O)(=O)Nc1ccc(F)c(C(=O)c2c[nH]c3ncc(Cl)cc23)c1F + COc1cc2ncnc(Nc3ccc(Oc4ccccc4)cc3)c2cc1OC [SrcI1] (first compound 0.08 µM, partner dose 2 µM)",cell count,[1],81.9%
same,cell count,[2],98.9%
same,cell count,[3],99.6%
same,cell count,[4],75.6%
same,cell count,[5],89.4%
same,cell count,[6],107%
same,cell count,[7],88.2%
same,cell count,[8],119%
same,cell count,[9],106%
same,cell count,[10],90.4%
"CN(c1ncccc1CNc1nc(Nc2ccc3c(c2)CC(=O)N3)ncc1C(F)(F)F)S(C)(=O)=O + O=C1NC(=O)/C(=C/c2ccc(-c3ccc(F)cc3O)o2)S1 [AS252424] (first compound 0.08 µM, partner dose 1 µM)",cell count,[1],96.6%
same,cell count,[2],86%
same,cell count,[3],62.4%
same,cell count,[4],89.9%
same,cell count,[5],80.2%
same,cell count,[6],76.4%
same,cell count,[7],80.3%
same,cell count,[8],79.7%
same,cell count,[9],72.5%
same,cell count,[10],88.9%
"CCCS(=O)(=O)Nc1ccc(F)c(C(=O)c2c[nH]c3ncc(Cl)cc23)c1F + N#Cc1c(O)c2c(-c3ccc(-c4ccccc4O)cc3)csc2[nH]c1=O [A769662] (first compound 0.08 µM, partner dose 2 µM)",cell count,[1],84.5%
same,cell count,[2],96.8%
same,cell count,[3],116%
same,cell count,[4],79.2%
same,cell count,[5],64.5%
same,cell count,[6],96.8%
same,cell count,[7],69.9%
same,cell count,[8],112%
same,cell count,[9],95%
same,cell count,[10],81%
"CS(=O)(=O)c1ccc(C(=O)Nc2ccc(Cl)c(-c3ccccn3)c2)c(Cl)c1 [vismodegib] + NCC(=O)Nc1ccc(-n2nc(C(F)(F)F)cc2-c2ccc3c(ccc4ccccc43)c2)cc1 [OSU03012] (first compound 1 µM, partner dose 1 µM)",cell count,[1],105%
same,cell count,[2],56.5%
same,cell count,[3],104%
same,cell count,[4],108%
same,cell count,[5],96.2%
same,cell count,[6],81.3%
same,cell count,[7],46.3%
same,cell count,[8],87.4%
same,cell count,[9],80%
same,cell count,[10],104%
"NC1(c2ccc(-c3nc4ccn5c(=O)[nH]nc5c4cc3-c3ccccc3)cc2)CCC1 + O=S(=O)(c1ccccc1)N(CC(F)(F)F)c1ccc(C(O)(C(F)(F)F)C(F)(F)F)cc1 [T0901317] (first compound 0.4 µM, partner dose 1.4 µM)",cell count,[1],84.8%
same,cell count,[2],75.8%
same,cell count,[3],104%
same,cell count,[4],98.5%
same,cell count,[5],73.2%
same,cell count,[6],89.7%
same,cell count,[7],71.3%
same,cell count,[8],95.6%
same,cell count,[9],73.5%
same,cell count,[10],72.1%
"CS(=O)(=O)c1ccc(C(=O)Nc2ccc(Cl)c(-c3ccccn3)c2)c(Cl)c1 [vismodegib] + CN(C)S(=O)(=O)c1ccc2c(c1)/C(=C/c1cc3c([nH]1)CCCC3)C(=O)N2 [SU6656] (first compound 1 µM, partner dose 0.4 µM)",cell count,[1],108%
same,cell count,[2],87.5%
same,cell count,[3],108%
same,cell count,[4],116%
same,cell count,[5],89.8%
same,cell count,[6],98.5%
same,cell count,[7],88.1%
same,cell count,[8],102%
same,cell count,[9],76.1%
same,cell count,[10],77.7%
"CN(c1ncccc1CNc1nc(Nc2ccc3c(c2)CC(=O)N3)ncc1C(F)(F)F)S(C)(=O)=O + O=C(O)c1ccc(-c2c[nH]c3ncc(-c4ccccc4)cc23)cc1C1CCCC1 [GSK650394] (first compound 0.08 µM, partner dose 0.16 µM)",cell count,[1],84.5%
same,cell count,[2],94.5%
same,cell count,[3],88.6%
same,cell count,[4],102%
same,cell count,[5],83.6%
same,cell count,[6],81.8%
same,cell count,[7],92.2%
same,cell count,[8],98.3%
same,cell count,[9],56.7%
same,cell count,[10],111%
"C=C(c1ccc(C(=O)O)cc1)c1cc2c(cc1C)C(C)(C)CCC2(C)C [Bexarotene] + COc1ccc2c(c1)CCC1C2CCC2(C)C(NCCCCCCN3C(=O)C=CC3=O)CCC12 [U73122] (first compound 2 µM, partner dose 0.4 µM)",cell count,[1],98.6%
same,cell count,[2],78.2%
same,cell count,[3],59.1%
same,cell count,[4],99.3%
same,cell count,[5],78.5%
same,cell count,[6],98.5%
same,cell count,[7],103%
same,cell count,[8],91.3%
same,cell count,[9],88.3%
same,cell count,[10],91.5%
"C=C(c1ccc(C(=O)O)cc1)c1cc2c(cc1C)C(C)(C)CCC2(C)C [Bexarotene] + N#Cc1c(O)c2c(-c3ccc(-c4ccccc4O)cc3)csc2[nH]c1=O [A769662] (first compound 2 µM, partner dose 2 µM)",cell count,[1],90.5%
same,cell count,[2],104%
same,cell count,[3],83.1%
same,cell count,[4],88.8%
same,cell count,[5],83.4%
same,cell count,[6],104%
same,cell count,[7],123%
same,cell count,[8],100%
same,cell count,[9],113%
same,cell count,[10],87.5%
"CCCS(=O)(=O)Nc1ccc(F)c(C(=O)c2c[nH]c3ncc(Cl)cc23)c1F + CN(C)S(=O)(=O)c1ccc2c(c1)/C(=C/c1cc3c([nH]1)CCCC3)C(=O)N2 [SU6656] (first compound 0.08 µM, partner dose 0.4 µM)",cell count,[1],95.5%
same,cell count,[2],82.1%
same,cell count,[3],108%
same,cell count,[4],93.7%
same,cell count,[5],61.6%
same,cell count,[6],98.5%
same,cell count,[7],89.1%
same,cell count,[8],78.4%
same,cell count,[9],70.5%
same,cell count,[10],68.3%
"NC1(c2ccc(-c3nc4ccn5c(=O)[nH]nc5c4cc3-c3ccccc3)cc2)CCC1 + Cn1cncc1[C@@](N)(c1ccc(Cl)cc1)c1ccc2c(c1)c(-c1cccc(Cl)c1)cc(=O)n2C [tipifarnib] (first compound 0.4 µM, partner dose 0.01 µM)",cell count,[1],84.7%
same,cell count,[2],76.9%
same,cell count,[3],69.5%
same,cell count,[4],81.8%
same,cell count,[5],66.3%
same,cell count,[6],63.5%
same,cell count,[7],93.8%
same,cell count,[8],85.4%
same,cell count,[9],68%
same,cell count,[10],58.9%
"CCCS(=O)(=O)Nc1ccc(F)c(C(=O)c2c[nH]c3ncc(Cl)cc23)c1F + CCc1ccc(CCOc2ccc(CC3SC(=O)NC3=O)cc2)nc1 [pioglitazone] (first compound 0.08 µM, partner dose 2 µM)",cell count,[1],83.5%
same,cell count,[2],84.3%
same,cell count,[3],117%
same,cell count,[4],87.8%
same,cell count,[5],99.2%
same,cell count,[6],106%
same,cell count,[7],73.4%
same,cell count,[8],118%
same,cell count,[9],100%
same,cell count,[10],64.1%
"CCCS(=O)(=O)Nc1ccc(F)c(C(=O)c2c[nH]c3ncc(Cl)cc23)c1F + CC1(C)NC(=O)N(c2ccc([N+](=O)[O-])c(C(F)(F)F)c2)C1=O [nilutamide] (first compound 0.08 µM, partner dose 1 µM)",cell count,[1],92.6%
same,cell count,[2],109%
same,cell count,[3],110%
same,cell count,[4],67.3%
same,cell count,[5],83.4%
same,cell count,[6],97.3%
same,cell count,[7],99.5%
same,cell count,[8],109%
same,cell count,[9],106%
same,cell count,[10],54.3%
"CN(c1ncccc1CNc1nc(Nc2ccc3c(c2)CC(=O)N3)ncc1C(F)(F)F)S(C)(=O)=O + COc1ccc(COc2ccc(Cc3cnc(N)nc3N)cc2OC)cc1 [GW2580] (first compound 0.08 µM, partner dose 1 µM)",cell count,[1],86.1%
same,cell count,[2],98.6%
same,cell count,[3],74.3%
same,cell count,[4],91.2%
same,cell count,[5],79.7%
same,cell count,[6],96.4%
same,cell count,[7],101%
same,cell count,[8],76.6%
same,cell count,[9],74.5%
same,cell count,[10],67.5%
"CCCS(=O)(=O)Nc1ccc(F)c(C(=O)c2c[nH]c3ncc(Cl)cc23)c1F + O=C(O)c1ccc(-c2c[nH]c3ncc(-c4ccccc4)cc23)cc1C1CCCC1 [GSK650394] (first compound 0.08 µM, partner dose 0.16 µM)",cell count,[1],82.5%
same,cell count,[2],88.5%
same,cell count,[3],98.2%
same,cell count,[4],89.5%
same,cell count,[5],82.8%
same,cell count,[6],87.9%
same,cell count,[7],92.1%
same,cell count,[8],115%
same,cell count,[9],65.7%
same,cell count,[10],63.3%
"CN(c1ncccc1CNc1nc(Nc2ccc3c(c2)CC(=O)N3)ncc1C(F)(F)F)S(C)(=O)=O + NC(=O)Nc1cc(-c2cccc(F)c2)sc1C(=O)N[C@H]1CCCNC1 [AZD7762] (first compound 0.08 µM, partner dose 0.02 µM)",cell count,[1],104%
same,cell count,[2],111%
same,cell count,[3],91%
same,cell count,[4],112%
same,cell count,[5],79.2%
same,cell count,[6],110%
same,cell count,[7],90.2%
same,cell count,[8],80.5%
same,cell count,[9],130%
same,cell count,[10],97.7%
"CN(c1ncccc1CNc1nc(Nc2ccc3c(c2)CC(=O)N3)ncc1C(F)(F)F)S(C)(=O)=O + COc1ccc2c(c1)CCC1C2CCC2(C)C(NCCCCCCN3C(=O)C=CC3=O)CCC12 [U73122] (first compound 0.08 µM, partner dose 0.4 µM)",cell count,[1],98.2%
same,cell count,[2],102%
same,cell count,[3],64.1%
same,cell count,[4],113%
same,cell count,[5],106%
same,cell count,[6],97%
same,cell count,[7],97.7%
same,cell count,[8],82.5%
same,cell count,[9],78.2%
same,cell count,[10],96%
"NC1(c2ccc(-c3nc4ccn5c(=O)[nH]nc5c4cc3-c3ccccc3)cc2)CCC1 + C[C@@H]1CCN(C(=O)CC#N)C[C@@H]1N(C)c1ncnc2[nH]ccc12 [CP690550] (first compound 0.4 µM, partner dose 1 µM)",cell count,[1],102%
same,cell count,[2],82.8%
same,cell count,[3],103%
same,cell count,[4],86.1%
same,cell count,[5],61.3%
same,cell count,[6],87.1%
same,cell count,[7],73.8%
same,cell count,[8],86.2%
same,cell count,[9],80.7%
same,cell count,[10],85.1%
